The values below come from the supplement of paper PMC9446081.

The campaign covered roughly 39,000 compounds. About 220 (0.56%) showed activity. The list shows a part of the results.
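Further: static incubation at 37 °C against the wild-type strain, values averaged over two biological replicates.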

This assay deals with Escherichia coli K-12 BW25113. Kind of assay: relative growth (OD600 normalised to plate interquartile mean) (fraction); higher = less growth inhibition, active = 0.2 or less. Particulars: 50 µM; LB; incubation time: overnight (16-24 h).
On to `C[C@H](CO)N1C[C@H](C)[C@H](CN(C)S(=O)(=O)c2ccc(Cl)cc2)OCCCC[C@H](C)Oc2ccc(NC(=O)c3ccccc3)cc2C1=O`, for which the relative growth is inactive: 1.04. On to `COc1ccc(S(=O)(=O)N(C)C[C@@H]2Oc3c(NC(=O)c4ccno4)cccc3C(=O)N([C@@H](C)CO)C[C@@H]2C)cc1`, for which the relative growth is inactive: 0.986. Turning to `C[C@@H]1CN([C@H](C)CO)C(=O)c2cc(NS(C)(=O)=O)ccc2O[C@H]1CN(C)C(=O)Nc1ccccc1`, the relative growth is inactive: 0.992.

For `CCCN(C)C[C@@H]1OCCCC[C@H](C)Oc2ccc(NC(=O)CCC(F)(F)F)cc2C(=O)N([C@H](C)CO)C[C@@H]1C`, the relative growth is inactive: 0.998. Regarding `C[C@H]1CCCCO[C@H](CN(C)Cc2ccc(C(=O)O)cc2)[C@@H](C)CN([C@@H](C)CO)C(=O)c2cc(NS(=O)(=O)c3ccc(F)cc3)ccc2O1`, the relative growth is inactive: 0.987. In the case of `C[C@H]1CN([C@@H](C)CO)C(=O)Cc2cc(NC(=O)C3CCCCC3)ccc2O[C@H]1CN(C)Cc1ccc(C(F)(F)F)cc1`, the relative growth was inactive: 1.03. For `COc1ccc(NC(=O)Nc2ccc3c(c2)C(=O)N([C@H](C)CO)C[C@H](C)[C@H](CN(C)Cc2ccc(C(=O)Nc4ccccc4N)cc2)OCCCC[C@@H](C)O3)cc1`, the relative growth was inactive: 0.978. On to `Cc1noc(C)c1S(=O)(=O)N(C)C[C@@H]1Oc2ccc(NC(=O)Cn3cnnn3)cc2CC(=O)N([C@@H](C)CO)C[C@@H]1C`, for which the relative growth was inactive: 0.979. In the case of `O=C(C[C@H]1CC[C@@H]2[C@H](COC[C@@H](O)CN2C(=O)c2cnccn2)O1)NCc1ccc(Oc2ccccc2)cc1`, the relative growth was inactive: 0.964.

For the molecule `COc1ccc(NC(=O)N(C)C[C@@H]2Oc3ccc(NC(=O)Nc4cccc5ccccc45)cc3CC(=O)N([C@H](C)CO)C[C@@H]2C)cc1`, the relative growth is inactive: 1.01. For `C[C@@H]1CN([C@@H](C)CO)C(=O)c2cc(NC(=O)NC3CCCCC3)ccc2O[C@@H](C)CCCCO[C@@H]1CN(C)C(=O)CCC(F)(F)F`, the relative growth is inactive: 0.987. With `COc1ccc(NC(=O)Nc2cccc3c2O[C@H](CN(C)Cc2ccc(-c4ccccc4)cc2)[C@H](C)CN([C@H](C)CO)C3=O)cc1`, the relative growth is inactive: 0.849. As to `C/C=C/c1ccc2c(c1)O[C@H](CN(C)S(=O)(=O)c1ccccc1OC)[C@H](C)CN([C@@H](C)CO)S2(=O)=O`, the relative growth was inactive: 0.997. Turning to `COc1cccc(CNC(=O)c2cc3c(c(-c4cccc(-c5ccncc5)c4)n2)[C@@H](CCO)N([S@@](=O)C(C)(C)C)C3)c1`, the relative growth is inactive: 1.04.

As for `COc1ccc(NC(=O)Nc2ccc3c(c2)C(=O)N([C@@H](C)CO)C[C@H](C)[C@@H](CN(C)S(=O)(=O)c2c(C)noc2C)OCCCC[C@@H](C)O3)cc1`, the relative growth was inactive: 1.04. Regarding `C[C@H](O)C#Cc1ccc2c(c1)O[C@H](CN(C)C(=O)c1ccccc1)[C@@H](C)CN([C@H](C)CO)S2(=O)=O`, the relative growth is inactive: 1.01. For `Cc1noc(C)c1S(=O)(=O)Nc1ccc2c(c1)CC(=O)N([C@@H](C)CO)C[C@H](C)[C@@H](CN(C)S(=O)(=O)c1ccc(Cl)cc1)O2`, the relative growth is inactive: 1.01. With `COc1ccc(CN(C)C[C@@H]2OCCCC[C@@H](C)Oc3ccc(NC(=O)NC(C)C)cc3C(=O)N([C@H](C)CO)C[C@H]2C)cc1`, the relative growth is inactive: 0.977. With `C[C@@H]1CCCCO[C@@H](CN(C)C(=O)NC2CCCCC2)[C@H](C)CN([C@H](C)CO)C(=O)c2cc(NS(=O)(=O)c3ccc(F)cc3)ccc2O1`, the relative growth was inactive: 0.984. Then `CO[C@@H]1CN(C)C(=O)c2cc(NS(=O)(=O)CC(F)(F)F)ccc2OC[C@H](C)N(Cc2ccccn2)C[C@H]1C`, with inactive: 1.01. Take `C[C@@H]1CN([C@@H](C)CO)C(=O)c2cc(NC(=O)Nc3ccccc3)ccc2O[C@@H](C)CCCCO[C@@H]1CN(C)Cc1ccc(C(=O)O)cc1`: the relative growth was inactive: 1. As to `C[C@@H]1CCCCO[C@@H](CN(C)Cc2ccc3c(c2)OCO3)[C@@H](C)CN([C@@H](C)CO)C(=O)c2cc(NC(=O)c3ccccc3)ccc2O1`, the relative growth is inactive: 0.981. Then `COC(=O)CCCCCNc1n[nH]c(=O)[nH]c1=O`, with inactive: 1.03; and `Cc1ccc(NC(=O)[C@@H]2[C@@H]3CC/C=C\CC/C=C/CC[C@@H]32)cc1C`, with inactive: 1.01. With `CS(=O)(=O)c1ccc(O)c(C(=O)O)c1`, the relative growth was inactive: 0.974. As to `CC(C)CC#Cc1ccc2c(c1)O[C@@H](CN(C)CC1CCOCC1)[C@H](C)CN([C@H](C)CO)S2(=O)=O`, the relative growth was inactive: 0.964. Then `C[C@@H]1CN([C@H](C)CO)C(=O)c2cccc(NS(C)(=O)=O)c2O[C@H]1CN(C)Cc1ccc2c(c1)OCO2`, with inactive: 0.998; and `CN(C)CC(=O)Nc1ccc2c(c1)C(=O)N(C)[C@H]1CC[C@H](CC(=O)Nc3cccc(Cl)c3)O[C@@H]1CO2`, with inactive: 1. Turning to `Cc1ccc(S(=O)(=O)Nc2ccc3c(c2)C(=O)N([C@@H](C)CO)C[C@H](C)[C@@H](CN(C)C(=O)Nc2ccc4c(c2)OCO4)OCCCC[C@@H](C)O3)cc1`, the relative growth was inactive: 1.01. The same measure for `C[C@H]1CCCCO[C@@H](CN(C)Cc2ccccc2)[C@@H](C)CN([C@@H](C)CO)C(=O)c2cc(NC(=O)Nc3ccc4c(c3)OCO4)ccc2O1`: inactive: 0.976; for `COc1ccc(S(=O)(=O)Nc2ccc3c(c2)C(=O)N([C@@H](C)CO)C[C@@H](C)[C@@H](CN(C)Cc2ccccc2)OCCCC[C@H](C)O3)cc1`: inactive: 1.01; for `COc1ccc(S(=O)(=O)N(C)C[C@H]2OCCCC[C@H](C)Oc3ccc(NC(=O)Nc4ccccc4)cc3C(=O)N([C@H](C)CO)C[C@@H]2C)cc1`: inactive: 1.04.

In the case of `C[C@@H]1CN([C@H](C)CO)C(=O)CCCn2cc(nn2)CO[C@@H]1CN(C)C(=O)c1cc(-c2ccccc2)on1`, the relative growth is inactive: 0.989.

Take `Cc1ccc(S(=O)(=O)Nc2ccc3c(c2)C(=O)N([C@@H](C)CO)C[C@H](C)[C@H](CN(C)Cc2ccc(C(F)(F)F)cc2)OCCCC[C@H](C)O3)cc1`: the relative growth was inactive: 1.05.

For the molecule `C[C@@H]1CCCCO[C@H](CN(C)CC2CCCCC2)[C@H](C)CN([C@H](C)CO)C(=O)c2cc(NC(=O)Nc3ccc4c(c3)OCO4)ccc2O1`, the relative growth is inactive: 1.04.
